Measured values published in the supplement of paper PMC3334620.
Whole data set: some 33,000 sequences, median “E-score (-0.5 to 0.5)” near -0.054, cut for the highest 2% near 0.39. Some of the results follow.

biological target: Ylr278c (UniProt Q05854); assay: PBM E-score (8-mer binding enrichment) (E-score (-0.5 to 0.5)); higher = stronger / more preferred TF binding; most listed sequences are background and not binding sites; conditions: protein concentration: 200 nM; construct: GST-DNA-binding domain
Method: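 Universal 'all 10-mer' protein binding microarrays (Agilent AMADID 015681) probed with GST-tagged S. cerevisiae TFs (full-length or DBD) made by in vitro transcription/translation (PURExpress), about 100-200 nM. Bound TF was detected with fluorescent anti-GST. Each ungapped 8-mer (which stands for itself and its reverse complement) is scored by the PBM enrichment score (E-score), a modified Wilcoxon-Mann-Whitney statistic from -0.5 to +0.5, computed with the Universal PBM Analysis Suite. Scale: above 0.35 generally sequence-specific binding.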

First: ACCCCTCA
Second: TCGCGGCA
The “PBM E-score” value of the first is lower: 0.0179 for the first, 0.239 for the second.

Compared with CCTACGGC, CACGACTG is lower in “PBM E-score” value: 0.0908 for the first, -0.138 for the second.

Compared with ATGCGATC, CATTAATC is higher in “PBM E-score” value: -0.0372 for the first, 0.0504 for the second.

Compared with GGAGGTCA, AGGACCAT is lower in “PBM E-score” value: 0.0301 for the first, -0.121 for the second.

Compared with GATCATAA, AAACATAC is lower in “PBM E-score” value: -0.0101 for the first, -0.137 for the second.

Compared with AGTCCTAC, CGAGCTAC is higher in “PBM E-score” value: -0.0571 for the first, -0.0114 for the second.

Going from TACGGTCA to AGGTTGCG, the “PBM E-score” value falls from 0.0722 to -0.271.

First: ACCGTTGC
Second: CTAATAGC
The “PBM E-score” value of the first is higher: 0.118 for the first, -0.191 for the second.

Compared with AAATAGGC, ATGTCAAG is lower in “PBM E-score” value: 0.142 for the first, -0.19 for the second.

First: AGTATGGG
Second: TAAATGGA
The “PBM E-score” value of the first is lower: -0.24 for the first, 0.0153 for the second.

First: GAAGACCC
Second: CCCAAATA
The “PBM E-score” value of the first is lower: -0.0933 for the first, -0.0778 for the second.

Going from GAGGCGCA to AAGTGCGC, the “PBM E-score” value rises from 0.119 to 0.152.

Compared with GTATAAAC, CATAAGAA is lower in “PBM E-score” value: 0.0178 for the first, -0.0489 for the second.

Compared with GGAGCCTA, GCGAACCA is lower in “PBM E-score” value: 0.207 for the first, -0.0272 for the second.

Compared with CCACGCAG, ATGAAAGG is higher in “PBM E-score” value: -0.0875 for the first, -0.0718 for the second.

Compared with AATTATAA, TACCTTGA is lower in “PBM E-score” value: 0.0424 for the first, -0.0479 for the second.

Going from ATACCGAT to TAAGAAGA, the “PBM E-score” value falls from 0.202 to 0.13.

Going from AAAGATGC to ACCATACT, the “PBM E-score” value rises from -0.226 to -0.2.

Going from CGACTCCC to TCCCCCCA, the “PBM E-score” value falls from 0.0244 to -0.243.

Compared with CAAATGAA, AATCCTAG is higher in “PBM E-score” value: -0.106 for the first, -0.0703 for the second.

Compared with GCCTTGAA, GCGGTTTA is higher in “PBM E-score” value: -0.222 for the first, 0.0277 for the second.

Compared with ATGCGATA, ATGCGAGG is lower in “PBM E-score” value: -0.0857 for the first, -0.152 for the second.

First: CCCGCAGA
Second: AAAACCCC
The “PBM E-score” value of the first is higher: 0.286 for the first, 0.265 for the second.

Going from TCTACACA to AAGTTCCA, the “PBM E-score” value rises from -0.186 to -0.173.

First: ATAGTTTG
Second: CAAGGGCC
The “PBM E-score” value of the first is higher: -0.0573 for the first, -0.0977 for the second.

Compared with AGCCACGC, AAATTGCC is higher in “PBM E-score” value: -0.149 for the first, 0.15 for the second.

Compared with GAGGCTCC, TAAAGTTA is lower in “PBM E-score” value: 0.1 for the first, -0.0394 for the second.

Compared with CCGCGACC, ATGGCTCC is lower in “PBM E-score” value: 0.199 for the first, -0.0569 for the second.

First: CCCGGTCG
Second: AGCTAGAA
The “PBM E-score” value of the first is higher: 0.317 for the first, -0.26 for the second.

Compared with AGCTGAGA, CAGCAACG is higher in “PBM E-score” value: -0.168 for the first, 0.0188 for the second.

First: GGACGACC
Second: AAACGTTC
The “PBM E-score” value of the first is higher: -0.0661 for the first, -0.254 for the second.

Going from CTACCCCA to CTGATCTA, the “PBM E-score” value falls from -0.0217 to -0.159.

Compared with AGCAGCGG, ACCGCTCT is lower in “PBM E-score” value: 0.101 for the first, -0.0365 for the second.

Going from GAGACCGC to CGCTTGTC, the “PBM E-score” value rises from 0.0415 to 0.0596.

Going from GTGCTGTA to CATGAATC, the “PBM E-score” value rises from -0.157 to -0.111.

Compared with AATCGTAA, CCAGCATC is higher in “PBM E-score” value: -0.0979 for the first, -0.0271 for the second.

First: GATAAAAC
Second: TACCCGGA
The “PBM E-score” value of the first is lower: 0.202 for the first, 0.395 for the second.

Going from CCGAGTCA to CCAATGGC, the “PBM E-score” value falls from 0.219 to -0.0621.

Going from AGTCAGCC to AGGAGTGG, the “PBM E-score” value rises from -0.158 to -0.11.

First: CACTAGGC
Second: CACCAAAA
The “PBM E-score” value of the first is higher: -0.035 for the first, -0.104 for the second.

First: AACACTGC
Second: ACTACGGA
The “PBM E-score” value of the first is lower: 0.0737 for the first, 0.316 for the second.

Going from ATTCAAGC to TCTGGTCA, the “PBM E-score” value falls from 0.00141 to -0.187.

First: CAATCATA
Second: TAAGGGCA
The “PBM E-score” value of the first is higher: -0.0563 for the first, -0.144 for the second.

Going from ACCAGGGC to ATCGGTAG, the “PBM E-score” value rises from -0.178 to 0.144.

Going from ATAAAGAA to AATACCAT, the “PBM E-score” value rises from -0.0262 to -0.00946.

Compared with GGAAGACA, TAGTCATA is lower in “PBM E-score” value: -0.062 for the first, -0.145 for the second.

First: AAAAGGTA
Second: ACTCCGAA
The “PBM E-score” value of the first is lower: -0.077 for the first, 0.484 for the second.

Going from CATGTAAA to ACTATTAG, the “PBM E-score” value rises from -0.194 to 0.0518.

Compared with CAGGCTGG, CTAATCCC is higher in “PBM E-score” value: -0.0868 for the first, 0.155 for the second.

First: AAGCACAC
Second: ATCCCGGC
The “PBM E-score” value of the first is lower: -0.17 for the first, 0.391 for the second.

Compared with CTATCGGA, AAAGCGCG is lower in “PBM E-score” value: 0.444 for the first, 0.0763 for the second.

Compared with CTAGACCC, TGTTTCAA is higher in “PBM E-score” value: -0.0706 for the first, -0.0571 for the second.

Compared with ATTTCCGA, GCAATATA is lower in “PBM E-score” value: 0.446 for the first, 0.00065 for the second.

First: AAGTCTGC
Second: AAACAGCA
The “PBM E-score” value of the first is lower: -0.288 for the first, 0.0669 for the second.

First: AACAAAGA
Second: CTGGAGTA
The “PBM E-score” value of the first is lower: -0.0953 for the first, -0.0695 for the second.

Compared with CTGTGCGA, CGTGAGTC is higher in “PBM E-score” value: -0.261 for the first, -0.141 for the second.

Compared with GCTACGGA, CAACACGC is lower in “PBM E-score” value: 0.212 for the first, -0.182 for the second.

First: CGCCCATC
Second: AGACTTCG
The “PBM E-score” value of the first is higher: -0.0254 for the first, -0.137 for the second.

Compared with ACGCCTAA, ACCCCCAA is lower in “PBM E-score” value: -0.116 for the first, -0.126 for the second.

Compared with AAACCTCC, AGTTCTGC is lower in “PBM E-score” value: 0.147 for the first, 0.0212 for the second.

First: ACTAATAA
Second: CGCGTACG
The “PBM E-score” value of the first is lower: -0.0291 for the first, 0.22 for the second.

Compared with CGATCTAG, ACTCCGAT is higher in “PBM E-score” value: -0.179 for the first, 0.484 for the second.

Compared with ATGGGCTC, AGACCTTG is lower in “PBM E-score” value: -0.102 for the first, -0.323 for the second.

Compared with CAAGCTTC, ACGGAACA is higher in “PBM E-score” value: -0.198 for the first, 0.27 for the second.

First: ACCGGCTG
Second: CTTACTGC
The “PBM E-score” value of the first is higher: 0.189 for the first, 0.0718 for the second.

First: ACCGCGAA
Second: GCGACGTA
The “PBM E-score” value of the first is higher: 0.315 for the first, -0.0854 for the second.

Compared with CATACCCC, GTTATCAA is lower in “PBM E-score” value: 0.114 for the first, -0.231 for the second.

First: CCAATAAC
Second: GGTCATAC
The “PBM E-score” value of the first is lower: -0.00737 for the first, 0.0686 for the second.

Compared with GCCCCTCA, AACGTGAA is lower in “PBM E-score” value: -0.0143 for the first, -0.175 for the second.

First: ATCAGCGA
Second: CTTATGGA
The “PBM E-score” value of the first is higher: -0.00871 for the first, -0.2 for the second.

Going from ATCGATCG to ATGATGGA, the “PBM E-score” value rises from -0.0315 to -0.0123.

Compared with AATAGCTC, CGACACGC is higher in “PBM E-score” value: -0.176 for the first, -0.0207 for the second.

Compared with GGCTAACC, GCTCGTCA is lower in “PBM E-score” value: -0.102 for the first, -0.249 for the second.

Compared with AAACTAAA, ACAGCTAC is lower in “PBM E-score” value: -0.0975 for the first, -0.256 for the second.

Compared with CTAATGTA, GAAGAAAC is higher in “PBM E-score” value: -0.0864 for the first, 0.0261 for the second.

Going from ATAACGCA to GTAGGTAA, the “PBM E-score” value rises from -0.226 to -0.066.

Going from TAACCACA to CCGGAAAG, the “PBM E-score” value rises from -0.136 to 0.319.

Going from CATCGCTA to TGTAAACA, the “PBM E-score” value falls from -0.166 to -0.202.

First: CGGGAAAG
Second: ACGGTCAT
The “PBM E-score” value of the first is higher: 0.284 for the first, 0.143 for the second.

Compared with CTCTGACC, CTTCTGTC is higher in “PBM E-score” value: -0.148 for the first, -0.0596 for the second.

Compared with ACATGTAC, CGCATTTC is higher in “PBM E-score” value: 0.00176 for the first, 0.233 for the second.

Going from GCATACCA to ACCCCCGA, the “PBM E-score” value rises from -0.0385 to 0.261.

First: ACCCATGA
Second: ACGGATGC
The “PBM E-score” value of the first is lower: -0.136 for the first, 0.167 for the second.

First: TGGATCAA
Second: CCAAATCA
The “PBM E-score” value of the first is lower: -0.264 for the first, -0.195 for the second.

Going from GGACGTAA to GGGAACTA, the “PBM E-score” value falls from 0.12 to 0.11.

Compared with CACGGAGC, GGCTCCAA is lower in “PBM E-score” value: 0.403 for the first, -0.0143 for the second.
